Over roughly 5,400 compounds, “IFI” has its median near 2; the highest 2% begin near 22. Some of the results follow.
Assay: NOVARTIS: Inhibition Frequency Index (IFI) - the number of HTS assays where a compound showed > 50% inhibition/induction, expressed as a percentage of the number of assays in which the compound was tested.
Format: functional

Molecule	IFI
COc1cccc(CCOc2ccc3c(c2)C(=O)N(C(CC(C)C)C(=O)NC2CCN(Cc4ccccc4)CC2)[C@@H](Cc2ccc(O)cc2)C(=O)N3)c1 (stereo partly drawn)	4.72%
CCCC1=[N+](CC(=O)c2ccc(C)cc2)CCn2c(C)ccc21	5.75%
CC[n+]1cc(C)ccc1C=Cc1ccc(N(C)C)cc1	7.69%
COc1cccc(C=NNC(=O)c2ccccc2O)c1O	7.69%
N#Cc1ccc(NC(=O)CCCC(=O)O)cc1	2.54%
NCCCNc1ncc(C(=O)NCc2ccccc2)c(NCC2CCCCC2)n1	1.94%
CCOc1ccc(Br)cc1/C=C1\SC(=Nc2ccccc2CC)N(c2ccccc2CC)C1=O	0%
CCCc1nc2ccc(NC(=O)c3ccccc3F)cc2c(=O)n1Cc1ccc(-c2ccccc2)cc1	7.27%
COc1ccccc1CN1CCC(S(=O)(=O)c2ccccc2)CC1	4.11%
O=[N+]([O-])c1cccc2c(S(=O)(=O)NCCCN(CCO)CCO)cccc12	0%
Oc1ccc(-c2ccccn2)cc1CNC1CCN(Cc2ccccc2)CC1	0.855%
CCOC(=O)c1[nH]nc(C(=O)c2ccccc2)c1-c1ccccc1	1.83%
c1ccc(CCNc2ncnc3c2[nH]c2ccccc23)cc1	21.9%
Cc1ccc(NC(=O)c2ccc(NCCCN3CC(C)CC(C)C3)c([N+](=O)[O-])c2)cc1F (stereo not drawn)	0%
CCOc1cccc(Nc2cc(C)nc3ncnn23)c1	0%
Cc1cc(-c2cncnc2C2CCN(C(=O)c3cc(C(C)C)n[nH]3)CC2)on1	0%
COC(=O)C1=CNC=C(C(=O)OC)C1c1ccc(Cl)c([N+](=O)[O-])c1	2.35%
Cc1cccc(C)c1NC(=O)C(O)c1ccc(Cl)cc1Cl (stereo not drawn)	0%
COc1ccc(-c2nc(CN3CCCCC3)ccc2O)cc1	0%
CCCCCCc1ccc(C(=O)N(C)CCCNc2ccnc3cc(Cl)ccc23)cc1	4.21%
COc1cc(C2Nc3ccc4ccccc4c3C3=C2C(=O)CC(C)(C)C3)ccc1Oc1ccc([N+](=O)[O-])cc1C(F)(F)F (stereo not drawn)	0%
COc1cc(CN(C)c2ccc3nc(N)nc(N)c3c2)cc(OC)c1OC	15.4%
C=C(C[N+](C)(C)C)c1ccc([N+](=O)[O-])cc1	0.746%
CCC(CC)C(=O)Nc1c2c(nn1-c1cccc(Cl)c1)C[S+]([O-])C2 (stereo not drawn)	0%
COc1ccc(OCC(=O)Nc2c(C)n(C)n(-c3ccccc3)c2=O)cc1	0%

Molecule	IFI
Cc1oc2c(c1C(=O)N1CCC(C)CC1)C(=O)c1ccccc1C2=O	15.4%
O=C(/C=C/c1ccc(Br)cc1)NC(=O)c1ccccc1O	0%
O=C(NCCCN1CCCC1=O)c1cccn2c(=O)c3ccc(Cl)cc3nc12	2.78%
COc1cc(/C=C(\C#N)c2nc3ccccc3[nH]2)ccc1OCc1ccccc1	0%
CCN(CC)CCCC(C)Nc1nc(/C=C/c2ccccc2OC)nc2cc(Cl)ccc12 (stereo not drawn)	9.09%
O=C(COc1ccccc1)NC(c1ccco1)c1cc(Cl)c2cccnc2c1O (stereo not drawn)	4.17%
CC[n+]1c(/C=C(C)/C=C2\Sc3ccccc3N2CCO)sc2ccccc21	7.69%
O=C(Cc1ccccc1)NCCCCNc1ccnc2cc(Cl)ccc12	4.81%
CCc1nc2nc(C)cc(Nc3ccc(F)c(Cl)c3)n2n1	0%
COC(=O)[C@@H]1C[C@@H](NC(=O)c2ccc(OC)cc2OC)CN1CC(c1ccccc1)c1ccccc1	1.44%
C=CCC(=O)NC1CCN(CC(O)CN(Cc2ccccc2)S(=O)(=O)c2ccccc2)C1 (stereo not drawn)	2.91%
CSc1oc(C(C)(C)C)nc1[P+](c1ccccc1)(c1ccccc1)c1ccccc1	23.2%
O=[N+]([O-])c1cccc2c1nnn2C12CC3CC(CC(O)(C3)C1)C2	0%
CCC(C)(C#CCN1CCCC1)OC(C)=O (stereo not drawn)	0%
Cc1cc(N2CCN(C3CCCC3)CC2)n2c(nc3ccccc32)c1C#N	4.71%
COc1ccc(CN2CCc3nnc(CCc4ccccc4)n3CC2)c(F)c1	0%
COc1ccc(CCN2C(=O)c3ccc(Oc4ccc(NC(=O)c5oc(=O)c6ccccc6c5-c5ccccc5)cc4)cc3C2=O)cc1OC	0%
CCCOC(=O)C1=C(C)NC2=C(C(=O)CCC2)C1c1cc(Br)c(O)c(OCC)c1 (stereo not drawn)	3.45%
Cc1c(Cl)cccc1NC(=O)c1cccnc1Cl	15.4%
CCC(/C=C1\Sc2ccc(OC)cc2N1CCCS(=O)(=O)O)=C\c1sc2ccc(OC)cc2[n+]1CCCS(=O)(=O)O	22.7%
Cc1cccc(N(C)c2ccnc3c(-c4cccc(C(N)=O)c4)cnn23)c1	4.35%
O=C(CCC1CCCN(C(=O)c2ccsc2)C1)N1CCN(c2ccccn2)CC1 (stereo not drawn)	0%
GNF-Pf-1437, CHEMBL576411	14.3%
COc1ccc(C2C(C(=O)Nc3cccc(C(F)(F)F)c3)c3ccccc3C(=O)N2C2CCCCC2)cc1 (stereo not drawn)	0%
c1ccc(-c2cccc(-c3ccccn3)n2)nc1	21.6%

Molecule	IFI
COc1ccc(/C=C/c2ccc3ccccc3[n+]2C)cc1	10.6%
CC(C)CN1C(=O)c2ccccc2C(C(=O)Nc2ccccc2F)C1c1cccs1 (stereo not drawn)	3.03%
COc1ccccc1NC(=O)c1cnn(-c2ccccc2)c1-n1cccc1	0%
COC1=C(Nc2cccc(C(F)(F)F)c2)C(=O)c2ccccc2C1=O	4.65%
CCOC(=O)C1(CC2CCCCO2)CCN(Cc2cccc(C)n2)CC1 (stereo not drawn)	0%
C/C=C/C(C(=O)NCCCC)N1C(=O)c2cc(NC(C)=O)ccc2NC(=O)[C@@H]1CCC(=O)O (stereo partly drawn)	1.24%
Cc1ccc(CNC(=O)c2cc(=O)[nH]c3ccc(S(=O)(=O)N4CCOCC4)cc23)cc1	0%
COc1ccc(-c2noc(CC(=O)Nc3ccccc3C#N)n2)cc1	0%
CCOC(=O)c1ccc2c(c1)[C@@H]1C=CC[C@@H]1[C@H](c1cccc(OC)c1OC)N2	0%
CC(C)Cc1nc(N2CCOCC2)c2nnn(Cc3ccccc3)c2n1	0%
CC1=C(C(=O)OC(C)C)C(c2cccc([N+](=O)[O-])c2)C2=C(CCCC2=O)N1 (stereo not drawn)	1.15%
CCOC(=O)c1cnc2c(OC)cccc2c1Nc1ccc(C(C)=O)cc1	0%
Cc1ccc2ncnc(Nc3cccc(C(F)(F)F)c3)c2c1	4.41%
CCOC(=O)c1sc(-c2cnccc2C(F)(F)F)nc1C	5.68%
O=C(COc1ccc(Cl)cc1)Nc1nnc(-c2ccc3c(c2)OCO3)s1	1.71%
COCCn1c(=S)[nH]c2cc(C(=O)NCCc3ccc(S(N)(=O)=O)cc3)ccc2c1=O	0%
CC(C)CC(N)C(=O)NCCCNc1nsc2ccccc12 (stereo not drawn)	20.8%
CCOC(=O)C(Cc1ccc(O)cc1)NC1=CC(=O)C(=O)c2ccccc21 (stereo not drawn)	0%
O=C(CCNS(=O)(=O)c1ccc(Br)s1)N1CCc2ccccc2C1	0%
O=C(Nc1ccc(-c2cc(-c3ccccc3)nc(-c3ccc(NC(=O)c4cccc([N+](=O)[O-])c4)cc3)n2)cc1)c1cccc([N+](=O)[O-])c1	0%
COC(=O)C1=C(C)N/C(=C/c2cc(C)n(-c3ccc(Cl)c(Cl)c3)c2C)C1=O	0%
COc1cc(Nc2cncc(-c3ccncc3)n2)cc(OC)c1OC	0%
C=C(C)C(=O)OCCc1ccc(O)c(-n2nc3ccccc3n2)c1	0%
O=C1C(Nc2ccc(O)cc2)=CC(=NS(=O)(=O)c2cccs2)c2ccccc21	23.1%
COc1ccc(-n2nc([N+](=O)[O-])c(Nc3ccc([N+](=O)[O-])cc3C)[n+]2[O-])cc1	0%

Molecule	IFI
O=[N+]([O-])c1cc(Br)c(Nc2ccccc2)c([N+](=O)[O-])c1	7.69%
Cc1c(NC(=O)C2c3ccccc3C(=O)N3CCc4ccccc4C23)cccc1[N+](=O)[O-] (stereo not drawn)	0%
CC(=O)N(C1=C(N2CCCCC2)C(=O)c2ccccc2C1=O)c1ccccc1C	0%
O=C(Nc1ccc(Cl)c(C(F)(F)F)c1)NC1CC2CCC(C1)N2C1CCCC1 (stereo not drawn)	1.28%
CCC(SC1=Nc2ccccc2C2=NC(C(C)C)C(=O)N12)C(=O)Nc1cccc(C)c1 (stereo not drawn)	1.16%
COc1cc(NC(C)CCCN(Cc2ccccc2OC)C(=O)COCc2ccccc2)c2ncccc2c1 (stereo not drawn)	2.8%
c1ccc2c(NC3CCCC3)nc(Nc3ccc4c(c3)OCO4)nc2c1	0%
Cc1ncc(CN2CCC(C(=O)Nc3ccc(-c4nc5ccccc5o4)cc3)CC2)s1	0%
CCC(C)(C)c1ccc(OCCOCC[n+]2ccccc2)c(C(C)(C)CC)c1	6.52%
CCCCCN(C(=O)Nc1ccccc1OC)C(C)c1nc2ccccc2c(=O)n1-c1ccccc1OCC (stereo not drawn)	3.7%
O=C1NN=C(CC(=O)N2CC[C@@H](c3ccccc3)[C@H](O)C2)C2C=CC=CC12 (stereo partly drawn)	0%
CCOc1ccc(S(=O)(=O)N=C2C=C(Nc3ccc(O)cc3)C(=O)c3ccccc32)cc1	15.4%
COc1ccc2c(c1)OC(O)(C(F)(F)C(F)(F)F)CC2=O (stereo not drawn)	0%
CCOC(=O)C1=C(C)NC2=C(C(=O)CC(c3ccc(OC)c(OC)c3)C2)C1c1ccc(F)cc1 (stereo not drawn)	8.33%
CCC(C)CNC(=O)c1ccc(OC2CCN(CC3CCCCC3)CC2)c(Cl)c1 (stereo not drawn)	2.78%
CCN1/C(=C/C=C/c2oc3ccc4ccccc4c3[n+]2CC)Oc2ccc3ccccc3c21	19.7%
CCNC(=O)N1CCN(CCN(C/C=C/c2ccccc2OC)C(=O)CC(C)CC(C)(C)C)CC1 (stereo not drawn)	2.54%
COCCCNC(=O)c1cc(NC(=O)CCCCl)ccc1N1CCc2ccccc2C1	2.17%
COc1cc(-c2nc(-c3ccccc3)c(-c3cccc(C(F)(F)F)c3)[nH]2)cc(OC)c1O	4.71%
COc1ccc(C2C(C(=O)OC3CCCC3)=C(C)NC3=C2C(=O)CC(C)(C)C3)cc1Br (stereo not drawn)	2.27%
COc1ccc(-n2nc3c(c2NC(=O)/C=C\c2cc(OC)c(OC)c(OC)c2)CSC3)cc1	3.53%
c1ccc(-c2nn(-c3ccccc3)[n+](-c3cccc4ccccc34)n2)cc1	14.3%
CCCCCC(=O)Oc1ccccc1-c1nc2ccccn2c1NC(C)(C)CC(C)(C)C	2.86%
